# Data published in paper PMC4336329 (PLoS ONE, 2015).
# About 2,200 (0.71%) of roughly 310,000 compounds showed an effect of 50% or more. The effect is printed as a negative number. The list shows a part of the results.
# Target: human ether-à-go-go-related gene (hERG) potassium channel (human, UniProt Q12809)
# Assay: primary screen, population patch clamp on CHO cells stably expressing hERG
# human ether-à-go-go-related gene (hERG) potassium channel, sequence (Q12809 whole entry, looked up): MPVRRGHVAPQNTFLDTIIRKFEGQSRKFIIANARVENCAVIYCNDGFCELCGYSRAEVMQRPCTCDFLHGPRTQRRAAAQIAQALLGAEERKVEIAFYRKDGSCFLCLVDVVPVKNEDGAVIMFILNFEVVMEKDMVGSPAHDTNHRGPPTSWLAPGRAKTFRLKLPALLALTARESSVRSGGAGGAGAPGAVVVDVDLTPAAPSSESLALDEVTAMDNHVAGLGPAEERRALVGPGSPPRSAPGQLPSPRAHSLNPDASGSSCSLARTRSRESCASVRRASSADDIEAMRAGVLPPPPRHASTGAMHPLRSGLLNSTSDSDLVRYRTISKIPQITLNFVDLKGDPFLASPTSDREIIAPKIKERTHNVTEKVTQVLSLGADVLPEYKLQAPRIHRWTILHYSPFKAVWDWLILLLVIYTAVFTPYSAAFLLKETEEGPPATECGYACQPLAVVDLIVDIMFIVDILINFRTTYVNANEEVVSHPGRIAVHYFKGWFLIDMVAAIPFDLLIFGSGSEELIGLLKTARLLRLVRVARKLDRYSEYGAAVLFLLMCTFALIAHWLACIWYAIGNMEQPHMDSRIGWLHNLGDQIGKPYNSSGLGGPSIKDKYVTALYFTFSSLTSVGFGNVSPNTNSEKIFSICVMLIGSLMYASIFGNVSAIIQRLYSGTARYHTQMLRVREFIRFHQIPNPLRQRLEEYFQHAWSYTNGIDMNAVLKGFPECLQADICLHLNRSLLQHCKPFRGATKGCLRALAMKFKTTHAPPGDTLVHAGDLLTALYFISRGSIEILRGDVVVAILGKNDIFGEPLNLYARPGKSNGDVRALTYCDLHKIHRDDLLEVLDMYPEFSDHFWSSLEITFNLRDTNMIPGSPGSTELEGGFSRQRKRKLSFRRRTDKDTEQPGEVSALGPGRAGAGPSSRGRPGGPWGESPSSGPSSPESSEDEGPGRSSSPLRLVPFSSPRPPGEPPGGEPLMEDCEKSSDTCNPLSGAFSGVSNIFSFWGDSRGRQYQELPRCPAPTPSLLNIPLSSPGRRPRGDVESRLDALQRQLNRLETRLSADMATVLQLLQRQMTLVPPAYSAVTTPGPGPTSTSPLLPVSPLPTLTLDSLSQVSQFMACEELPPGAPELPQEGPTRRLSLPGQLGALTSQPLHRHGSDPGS
row,SMILES,"hERG current change (%, negative = inhibition) at 1uM [%]"
1,Cn1c(C(=O)NCCN2CCc3ccccc3C2)cc2c(=O)[nH]c3ccccc3c21,10.1
2,Cc1n[nH]c(C)c1CCN.Cl,10.6
3,COc1ccc(CCNC(=O)CN2C(=O)CSc3ccc(S(=O)(=O)N4CCOCC4)cc32)cc1OC,16.6
4,O=C1CCCN1c1ccc(S(=O)(=O)N2CCCCC2)cc1,11.5
5,Cc1cc(-c2ccc(C)c(S(=O)(=O)N3CC(=O)Nc4ccccc43)c2)on1,5.63
6,COc1cc(OC)c(S(=O)(=O)NC(C)C)cc1S(=O)(=O)NC(C)C,11.3
7,COc1ccc(CC(=O)NCc2cccs2)cc1OC,8.2
8,COc1ccc(NC(=O)CN(CC(=O)Nc2ccc(OC)cc2)C(C)(C)CO)cc1,12.4
9,CCCn1ncc(CN2CCC(Cc3cccc(F)c3)(C(=O)OCC)CC2)c1C,-10.2
10,O=S1(=O)CC(NCc2ccccc2)C(Nc2ccccc2)C1 (stereo not shown),5.78
11,Cc1ccc(C(=O)NC2CCN(CC(=O)NC3CCC(C)CC3)CC2)cc1 (stereo not shown),16.2
12,CC(=O)Oc1ccc(C(=O)Nc2nnc(C)s2)cc1,-1.04
13,O=C1NC(=Nc2ccccc2)SC1(CO)CO,11.2
14,O=C(c1ccc(-c2ccc([N+](=O)[O-])cc2)o1)N1CCCCCCC1,-6.48
15,Cc1sc2ncn(CC(=O)NCCCC(=O)Nc3ccc(C(C)C)cc3)c(=O)c2c1C,7.97
16,CCOC(=O)Cc1csc(NC(=O)CSc2nnc(-c3ccc(F)cc3)o2)n1,8.78
17,CCc1cccc(C)c1NC(=O)CN(C)Cc1ccc(Br)cc1,4.89
18,CC(=O)Nc1ccc(C(=O)NNC(=O)c2ccccc2-n2cccc2)cc1,8.82
19,COc1ccccc1N1CCN(c2nc(-c3ccccc3)cc(C(F)(F)F)n2)CC1,5.45
20,CC1CCCc2sc3nc(N4CCN(CCO)CC4)n4ncnc4c3c21 (stereo not shown),-0.829
21,COc1ccc(-c2cc(C(=O)N(C)Cc3ccc(OC)c(OC)c3OC)c3ccccc3n2)cc1OC,11.7
22,O=S(=O)(Nc1ccc(-c2nnc(SCc3ccc(Cl)cc3)o2)cc1)c1ccccc1,9.6

row,SMILES,"hERG current change (%, negative = inhibition) at 1uM [%]"
1,Cc1cccc(NC(=O)CN2C(=O)N/C(=C/c3cc(C)n(-c4ccncc4)c3C)C2=O)c1,4.64
2,O=C(CO/N=C/c1ccc(OC(F)F)cc1)NC1CCCCC1,8.77
3,CC(N=C(NS(=O)(=O)c1ccc(Cl)cc1)c1ccccc1)C(=O)O (stereo not shown),12.1
4,CC(NC(=O)c1cc(-c2ccncc2)nc2ccc(Br)cc12)C1CCCO1 (stereo not shown),8.33
5,CCc1ccc2[nH]c(=O)c(CN(CC3CCCO3)C(=S)NCc3ccco3)cc2c1 (stereo not shown),1.12
6,Cc1ccc2c(c1)c1c(n2CC(O)CNC2CCCCC2)CCCC1.Cl (stereo not shown),2.28
7,O=C(Nc1nccs1)c1c(O)c2cccc3c2n(c1=O)CCC3,12
8,Cc1ccc(C(=O)Nc2ccc(S(=O)(=O)NC3=NCCCCC3)cc2)c(C)c1,2.62
9,CCc1c(C(C)S(=O)(=O)c2ccccc2)[nH]c(=O)n1CC (stereo not shown),15
10,COc1ccc(C(C(=O)NC2CCCC2)N(Cc2cccnc2)C(=O)Cc2cccs2)c(OC)c1 (stereo not shown),12
11,O=C(CN1C(=O)c2ccccc2C1=O)Nc1cccc([N+](=O)[O-])c1,10.3
12,CCOC(=O)/C=C/C(=O)NNC(=O)c1ccccc1Cl,7.82
13,Cc1ccccc1N1CCN(C(=O)[C@@H]2CCCN2C2=NS(=O)(=O)c3ccccc32)CC1,10.8
14,CCOC(=O)/C(=C\c1cccnc1)C(=O)c1cc(C(C)=O)c(Nc2ccccc2)s1,11.9
15,S=C(Nc1ccccc1)N1CCCCC1,4.67
16,O=C(CN1CCN(S(=O)(=O)c2ccc(Br)cc2)CC1)Nc1ccc(F)cc1F,-10.1
17,CCSc1ncc(/C=N/Nc2ccc(F)cc2)n1C,3.79
18,CC1(C)CC(=O)C(C2NCCc3ccccc32)=C(O)C1 (stereo not shown),18.1
19,COc1ccc(/C=N/N2CCN(C3c4ccccc4-c4ccccc43)CC2)cc1OC,12.9
20,CCOc1ccc([N+](=O)[O-])c(N)c1,-2.68
21,CCC(=O)N=c1sc2ccccc2n1-c1ccccc1,6.78
22,COC(=O)c1ccc(COc2ccccc2OC)o1,16.3

row,SMILES,"hERG current change (%, negative = inhibition) at 1uM [%]"
1,CN(c1ccccc1C(=O)Nc1ccc2c(c1)OCO2)S(C)(=O)=O,0.848
2,CN(C)c1ccc(C=Nc2cnn(C)c2C(N)=O)cc1,3.48
3,COC(=O)c1[nH]c2ccccc2c1NC(=O)C(C)N1CCN(C(=O)c2ccco2)CC1 (stereo not shown),-13.1
4,CCC(=O)Nc1ccc(OCc2nnc3c4ccccc4c(C)nn23)cc1,-5.64
5,O=C(Cn1c(=O)n(Cc2ccccc2)c(=O)c2ccccc21)NCc1ccco1,11.7
6,Cc1ccc(C2=NN(S(C)(=O)=O)C(c3cccs3)C2)cc1 (stereo not shown),2.96
7,O=C1c2ccccc2C(=O)N1CC(O)COCc1ccccc1 (stereo not shown),17.6
8,Fc1cc(F)cc(-c2c(-c3ccccc3)ncc3ccc(F)cc23)c1,13.4
9,C/C(=N\O)c1noc(C)c1C(=O)Nc1nccs1,13.1
10,CCn1c(SCC(=O)OCc2ccccc2)nc2c1c(=O)n(C)c(=O)n2C,-9.11
11,CC(NCc1cccs1)c1ccccc1.Cl (stereo not shown),11.4
12,Cc1cccc(NNC(N)=S)c1C,-2.57
13,Cc1ccc(S(=O)(=O)c2c(C)nn(-c3ccccc3)c2OC(=O)c2ccco2)cc1,5.81
14,O=C(CCC(=O)N1CCOc2ccccc21)Nc1cc(F)ccc1F,2.8
15,CCOC(=O)N1CCN(C(=O)CSc2nnc(COc3ccc(Cl)cc3)o2)CC1,-2.74
16,O=C(NC(=S)NNC(=O)[C@H]1C[C@@H]1c1ccccc1)c1cccc(F)c1,18.1
17,CC(C)NC[C@H](O)c1ccc(O)c(O)c1.Cl,-0.439
18,CCN1CCN(Cc2nc3ccc([N+](=O)[O-])cc3c(=O)n2-c2ccccc2F)CC1,5.29
19,O=C1C2CCCN2C(c2cccc(Br)c2)N1c1ccc(F)cc1 (stereo not shown),0.674
20,CCC(Oc1ccc(Br)cc1)C(=O)N1CCN(c2ncccn2)CC1 (stereo not shown),4.19
21,CC(=O)c1cc(-c2ccc(F)cc2)n(CCC(=O)Nc2cc(C)[nH]n2)c1C,11.7
22,NC(=O)CSc1nnc(-c2cccc(S(=O)(=O)N3CCOCC3)c2)n1C1CCCCCC1,-2.36

row,SMILES,"hERG current change (%, negative = inhibition) at 1uM [%]"
1,CCOc1ccc(/C=C/c2[nH]c(=O)[nH]c(=O)c2[N+](=O)[O-])cc1,10.2
2,CC1(C)Cc2c(sc3c2C(=O)N(c2ccccc2)C2=NCCN23)CS1.Cl,8.49
3,O=C(CCC(=O)N(CC(=O)NC1CCCCC1)Cc1ccccc1)Nc1ccccn1,13.9
4,CC(=O)NS(=O)(=O)c1ccc(NC(=O)/C=C/c2ccccc2)cc1,13
5,O=C(C1CC(=O)N(c2ccc(F)cc2)C1)N1CCN(c2ccccc2)CC1 (stereo not shown),-13.6
6,CCc1nnc(SCC(=O)Nc2ccccc2)n1CC1CCCO1 (stereo not shown),6.7
7,CC(C)c1nnc(NC(=O)COC(=O)/C=C/c2ccc([N+](=O)[O-])cc2)s1,7.85
8,CC(C)(C)c1ccc(CCC2OCC(CN3CCOCC3)O2)cc1 (stereo not shown),4.49
9,O=C(O)C1CCN(S(=O)(=O)c2cccc3nonc23)CC1,14.7
10,COc1cc(C(=O)OCc2cccc(OC)c2OC)ccc1OCC(=O)N1CCOCC1,2.56
11,CC(C)[N+]1(C)[C@@H]2CC[C@H]1CC(OC(=O)C(CO)c1ccccc1)C2.O.[Br-] (stereo partly shown),9.02
12,Cc1ccc(Cn2ccc(NC(=O)c3cc(-c4ccc(Br)cc4)on3)n2)cc1,18.6
13,CCOC(=O)N1CCN(C(=O)c2cnsn2)CC1,10.7
14,CCCN(CCC)S(=O)(=O)c1ccc(C(=O)N2CCN(C)CC2)cc1,9.6
15,O=C(Nc1cccnc1)c1ccc(Cl)c(S(=O)(=O)N2CCOCC2)c1,4.49
16,NC(=O)[C@@H]1CCCN1C(=O)c1cc(COc2ccc3c(c2)CCCC3)on1,6.71
17,CCNCCC(=O)N1c2ccccc2Sc2ccc(NC(=O)OCC)cc21.Cl,-5.29
18,Cc1cccc(OCc2nnc(SCC(=O)Nc3cccc(C(=O)N4CCOCC4)c3)n2C)c1C,9.42
19,CCCCOc1ccc(C(=O)N2CCCC2C(=O)O)cc1 (stereo not shown),-3.78
20,O=C(O)[C@@H]1CCCN1S(=O)(=O)c1cccc(S(=O)(=O)N2CCC[C@H]2C(=O)O)c1,10.5
21,COC(=O)CC1C(=O)NCCN1C(=O)c1cc([N+](=O)[O-])ccc1Cl (stereo not shown),14.7
22,Clc1ccccc1C1=CC(c2ccco2)n2nnnc2N1 (stereo not shown),9.01
